Numbering of substitutions follows the chain as printed. Some of the results follow.
B1: chr1:80268134:80268135:-_ENSMUSG00000004364_ENSMUST00000163119|mus_hu|FALSE|FALSE (ssRNA)
RNA: GGGAGUUCUACAGUCCGACGAUCGACUCUGUGUAGUUUGGAUGUGAAUUGAUCAUUAACUGUAAAUAUAUGACCAUUUUCUAUUUCCUUUGAUUUGGGUUCUUUUGUAAGAACCCGCUGUGUUGGUUUACCACAGGCGAGGGACAACAGAGGAUUGAGCAUCA
B2: chr9:40579289:40579290:+_ENSMUSG00000032024_ENSMUST00000034522|mus_mus|FALSE|FALSE (ssRNA)
RNA: GGGAGUUCUACAGUCCGACGAUCAUUCUUCACCUUGCAGGUGUAUCUGCCUUCAUCACUGGGUUUCAGAGGCUCAAUCUGCAGGGAAGCAUCUCCUGCCAGGAAGUUGGAAGCGAAGGCCACUCGGCCCUUCUGCUCCUCGGUCAACAGAGGAUUGAGCAUCA
B3: chr7:140404665:140404666:+_ENSG00000090266_ENST00000247866|hu_hu|hu_hu_hu_mus_False|18_18 (ssRNA)
RNA: GGGAGUUCUACAGUCCGACGAUCUGCUCCUACUCGUCCAGAGAGUUUACAGUGUCAGUCCUCGUCAUCAGGAGGGAUUCCCAGUUCUUCAUCUGUCCACUGUGAAGGAUCUGGAUACGGAAAGUGACCCAGCACAGCAUCCGACAACAGAGGAUUGAGCAUCA
B4: chr8:121455507:121455508:-_ENSG00000172172_ENST00000306185|hu_mus|FALSE|FALSE (ssRNA)
RNA: GGGAGUUCUACAGUCCGACGAUCUGCAGUUUGUUGGAUGCUAUAACCGCAAGUUUGCCAGGGGGCUGCAUUUUGCCAUCUAAGAGAUACCACAUUCGAGCAAAAGUGGCCCAUUGCUGGGGCGCCCUAGAGAAGCUGGACAUGCAACAGAGGAUUGAGCAUCA
B5: chr1:220276048:220276049:+_ENSG00000067704_ENST00000302637|hu_hu|hu_hu_hu_mus_True|38_78 (ssRNA)
RNA: GGGAGUUCUACAGUCCGACGAUCGCAAAUUGCCUGGUUGGCGGGAAUUGUCCAAGGUUGUGUGGUCCAAACUAAAACGCUAACAGGGGAUGAGGCAUCUAUAAGAGACUCCAACUUCGGAGGAGGUCUCAGGAGGGGGAAUCUCAACAGAGGAUUGAGCAUCA
B6: chr4:38126685:38126686:+_ENSG00000065882_ENST00000510573|hu_hu|motif|central (ssRNA)
RNA: GGGAGUUCUACAGUCCGACGAUCGUCUUUUCCAUCUGUACCAAGCCAAGGUUGGGUAGCGUGCUUUUUAUAAAGUCAACGGUGGUUUCUAGGUUUUCAUGCUGCAGAAUCAAGGGCUUAUGGCUUCCCAACAGACUUAAAGCCCAACAGAGGAUUGAGCAUCA
B7: chr4:62047152:62047153:+_ENSMUSG00000066150_ENSMUST00000084526|mus_mus|FALSE|FALSE (ssRNA)
RNA: GGGAGUUCUACAGUCCGACGAUCUCCAGCCAUUUCUCCAGGUGUAUUGAUUACCAAACCGGAAAACAAUAGAUUCACAUUCUUAAAGUCAAAGUAGAAGGUCAUAGGCAUCAUCAUCAUGCUGUCCCCUCCACCGUGGGAGUGCAACAGAGGAUUGAGCAUCA
B8: chr21:38528988:38528989:+_ENSG00000182670_ENST00000355666|hu_hu|FALSE|FALSE (ssRNA)
RNA: GGGAGUUCUACAGUCCGACGAUCAAAAUCAAGCAGUUUAAGAGAUGCUCCAUAACGAGAAAAGAAAGUUCCUGUGGCAUCUAAGCCAAAGCUAUUAAGUUUUUGGAUCCAGGCGGCUAAUUUGGGCUCCACUUCUUUAAGCUCCAACAGAGGAUUGAGCAUCA
B9: 79225077_79225582_1203_3pUTR_ENSMUSG00000020716_ENSMUST00000071325|mouse|control|control (ssRNA)
RNA: GGGAGUUCUACAGUCCGACGAUCGGUUUACUUGGAUUAAAAAGCAGGUUCUUAAGAUCAACUACCAUGGACUGAACCAGUAGGAAAAUGACAGAAUUAUCUUCCCAGUUGAUGUAAGUACUUGCUUUACACAACUUGACACAACAACAGAGGAUUGAGCAUCA
B10: chr15:78834838:78834839:+_ENSG00000041357_ENST00000044462|hu_hu|motif|central (ssRNA)
RNA: GGGAGUUCUACAGUCCGACGAUCAUCAAGAAGCUUGUGGAUGUUGCGUCUCUCUGCUGCAAGCAAAACACCAUCAUUUGCGGAAAUUCCCAAACAGGUGCCUGCAUGUCCAAUAGCUUCCAUGGCAUAUUCAACUUGGUAUAACAACAGAGGAUUGAGCAUCA
B11: chr2:216981417:216981418:+_ENSG00000079246_ENST00000392132|hu_mus|FALSE|FALSE (ssRNA)
RNA: GGGAGUUCUACAGUCCGACGAUCCUGAUACUGGUCCUUGCCAGCAAGGGCAUUAUCAGUGCCAUCUGUGCCAUAGAGGACUAACGCAAUCUCAUCUUUGCUCUCCGAAAAUACCUGUCGUUGGACAAACAUAGUCAUCACUUUCAACAGAGGAUUGAGCAUCA
B12: chr2:216981417:216981418:+_ENSG00000079246_ENST00000392132|hu_hu|hu_hu_hu_mus_True|8_88 (ssRNA)
RNA: B11 RNA with C50G, A54G, A132G, C135U
B13: chr3:127788656:127788657:+_ENSG00000058262_ENST00000243253|hu_hu|FALSE|FALSE (ssRNA)
RNA: GGGAGUUCUACAGUCCGACGAUCCACUUUCACAGUUCUUUUUGCCAGUGCCAGGAUAAAAAGCAAAAUUUUAAAUUGGAAAAUGUCUAGCACUUUACACAGUGGAAUGAAAGAAUACGAAAUUCAAAAACAUUAUUAAAAGUCCAACAGAGGAUUGAGCAUCA
B14: chr7:34935884:34935885:-_ENSMUSG00000052997_ENSMUST00000102746|mus_mus|motif|central (ssRNA)
RNA: GGGAGUUCUACAGUCCGACGAUCUAAAAUCUUUAAUCCUUCCAACACUAUCAAGCCGGCGAUCACUGCAUUAGUAGUAGCGGUAGCAGGAAUGAUAUUCCCUGCCAUUGAUUUUAUAUCAAACCUGCUCUUCAUAUUCAUGCUCAACAGAGGAUUGAGCAUCA
B15: chr6:75965845:75965846:-_ENSG00000112697_ENST00000230461|hu_hu|FALSE|FALSE (ssRNA)
RNA: GGGAGUUCUACAGUCCGACGAUCAUUUGCUUUCAUAAUAUAAAAUUAAAUGGUAAUGUCAGCUGUAUUACUACUGUUUCUAUAUUUAUGAUUAAUUACUAGCAGUACAACUCCCAGAAGGAAGGAGAUGGAUCCAACAGCGAUCAACAGAGGAUUGAGCAUCA
B16: chr8:11781157:11781158:+_ENSMUSG00000031511_ENSMUST00000110909|mus_mus|FALSE|FALSE (ssRNA)
RNA: GGGAGUUCUACAGUCCGACGAUCCAAGGAGCUGAGGACCUUGUUAAAGUUCUGCCCCUGAUACAAAUCAUUUGCAUCAAAAGUCUCUAGGCGCAGGGACGCCCCGCAGGCGCGCAGGAACUCGCGGAUGUUGCUCAGGCACUCCAACAGAGGAUUGAGCAUCA
B17: 65321744_65321864_161_3pUTR_ENSG00000103707_ENST00000220058|human|control|control (ssRNA)
RNA: GGGAGUUCUACAGUCCGACGAUCGGCGGCGUGCAGCGCCCGCAGCGCCUCGCGGGCGAACUGGUCCGUGCCGAAGAAGAGCACCCGCCAGGGAGGCUUCUCGCGGACUCUGGAGUCCCGGCAGUCCUCCCAGCCGAGUCGGGCCAACAGAGGAUUGAGCAUCA
B18: chr4:148551591:148551592:-_ENSMUSG00000063077_ENSMUST00000060537|mus_hu|mus_mus_mus_hu_False|1_108 (ssRNA)
RNA: GGGAGUUCUACAGUCCGACGAUCACCUUACAAAAUUAAAUAUCCCUGUAAAUUAGACAAUAAGCAGCAGGCAACAAAGUCUUUGCUUUGGAAUAUGUGCCAGGAAAAGUCAUCUUGUUUUUAGAUCUCAAGAGACACAACCAUCAACAGAGGAUUGAGCAUCA
B19: chr1:175956164:175956165:-_ENSG00000143207_ENST00000367666|hu_mus|FALSE|FALSE (ssRNA)
RNA: GGGAGUUCUACAGUCCGACGAUCAGCAGCAAUCAGCACAUUGGACUCCCCGUCUGAUAGUGCCCGCCAACACACAGCACUGACAAAUUCAUUUGUGUCAUCUUCUUUCCGAUCUUUGUCUAAUACACUCUUAACGGUAUCAAACAACAGAGGAUUGAGCAUCA
B20: chr6:114281168:114281169:-_ENSG00000196591_ENST00000368632|hu_hu|hu_hu_hu_mus_True|1_68 (ssRNA)
RNA: GGGAGUUCUACAGUCCGACGAUCUUCCAUUUUUCGGUAUAAACCAUAAUUUAGCAGCAAGUUAUGAGUCAUGCGGAUUCUAUGAGGCUUCAUGGGAUGACCCUGGCCAUAAUAAUAAUUGCCAAUAUCACCAUCAUACUAGAACAACAGAGGAUUGAGCAUCA
B21: 33132165_33136767_899_CDS_ENSMUSG00000028277_ENSMUST00000124992|mouse|control|control (ssRNA)
RNA: GGGAGUUCUACAGUCCGACGAUCUCUCUGACUCUGUUGCUGGGCUCUGCGCUGCCGAGGGCUCAUGGAGGUAUUCUUAGGAGCUGGCUGGGUAGGUUGUGGCAAGGGUGCUCCUGAUGGAUUCUGGGCGCCAUACGAUGUGCUCAACAGAGGAUUGAGCAUCA
B22: chr17:66468409:66468410:+_ENSMUSG00000024101_ENSMUST00000116556|mus_mus|FALSE|FALSE (ssRNA)
RNA: GGGAGUUCUACAGUCCGACGAUCUGGGAUGGAGUCUGACAUUCGAGAGAAGGCUCCUCCAGGUCCCUCACUGGUUCCAGUGCUAGGUCCCUUUCCAGAGAUACCUUUGCGCCUCAUGACAAGUUUGUUGAAGAGAUCUGACAUCAACAGAGGAUUGAGCAUCA

target: T1, UNK ZnF1-3 (human, UniProt Q9C0B0 31-174); experiment: nsRBNS (natural sequence RNA bind-n-seq); RBNS binding buffer (assumed for nsRBNS): 25 mM Tris pH 7.5, 150 mM KCl, 3 mM MgCl2, 0.01% Triton X-100, 500 ug/ml BSA, 20 U/ml SUPERase-In, 4 C; UNK is unkempt and MSI1 is Musashi-1; names of the RNAs are library labels; protein concentration not given here; high values mean tight binding
T1 sequence: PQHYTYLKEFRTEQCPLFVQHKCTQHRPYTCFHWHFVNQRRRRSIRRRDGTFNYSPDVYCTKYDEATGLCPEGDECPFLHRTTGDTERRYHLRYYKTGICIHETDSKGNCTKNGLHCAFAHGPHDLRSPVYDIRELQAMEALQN

Row | Binder | binding signal [enrichment R]
1 | B1 | 0.47
2 | B2 | 0.565
3 | B3 | 1.43
4 | B4 | 1.13
5 | B5 | 2.06
6 | B6 | 1.01
7 | B7 | 1.43
8 | B8 | 1.01
9 | B9 | 0.486
10 | B10 | 0.875
11 | B11 | 0.599
12 | B12 | 1.23
13 | B13 | 2.5
14 | B14 | 0.506
15 | B15 | 1.03
16 | B16 | 0.82
17 | B17 | 0.89
18 | B18 | 1.31
19 | B19 | 1.26
20 | B20 | 1.07
21 | B21 | 0.746
22 | B22 | 0.746

Source: article PMC12136788
